Reference: the supplement of paper PMC10126150
Values marked as one replicate rest on one cluster of the flow cell; about a third of the high ones do not repeat.

Test system: ATP
Assay: switch fluorescence ratio, 500 uM ATP over buffer (Cy3 cluster intensity, sum of 5 cycles each) (fold (ratio)); higher = stronger signal-on switching upon ATP binding; sequences stand for … in TCGTCGGCAGCGTCAGATGTGTATAAGAGACAGTTTTTTTTTTTTTTTTTTTTTTTTT…TC
Conditions: aptamer strand: ATP DNA aptamer (quencher-CACCTGGGGGAGTATTGCGGAGGAAGG + anchor), 100 nM annealed; ATP concentration: 500 uM; one replicate
Method in brief: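 The quencher-labelled ATP aptamer, at 100 nM, was annealed to Cy3-labelled switching-strand clusters on a modified Illumina MiSeq flow-cell. The clusters were imaged in selection buffer, then after 15 min with 500 uM ATP at 22 °C, and this buffer/ATP cycle ran five times with NaOH stripping and re-annealing between runs. Per-cluster fluorescence ratios, summed target-cycle over summed buffer-cycle Cy3 intensity, were averaged per switch-domain sequence. Clusters outside 100-1000 RFU were excluded.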
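Further: ATP exposure 15 min at 22 °C before imaging.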

Row | Sequence | switch fluorescence ratio
1 | GCATGAATTA | 1.01
2 | GCATGATGA | 0.985
3 | GCATGATTTT | 1.01
4 | GCATGCCCTT | 1.02
5 | GCATGCGGAC | 1.07
6 | GCATGCGGCA | 1.05
7 | GCATGGTATT | 1.01
8 | GCATGGTGAT | 0.989
9 | GCATGTAGGA | 0.999
10 | GCATGTTGCA | 1.01
11 | GCATTAATTT | 1.03
12 | GCATTCTACC | 1.35
13 | GCATTCTGTG | 1
14 | GCATTGACAA | 1.02
15 | GCATTGTAAA | 0.935
16 | GCATTGTCTG | 0.984
17 | GCATTTGCCC | 1
18 | GCATTTTCCT | 0.999
19 | GCCAAAGTGG | 1
20 | GCCAAGGGCG | 1.04
21 | GCCAATCTCG | 1.08
22 | GCCAATGGCG | 1.05
23 | GCCACACGTA | 1.11
24 | GCCACTCCCT | 1.42
25 | GCCACTGACT | 1.03

Row | Sequence | switch fluorescence ratio
26 | GCCACTTTAT | 1.03
27 | GCCAGCACCA | 1.03
28 | GCCATATCTA | 0.911
29 | GCCATCCTGA | 0.982
30 | GCCATGCCTG | 1.07
31 | GCCATTACAT | 0.947
32 | GCCCAATGTT | 1.05
33 | GCCCAGATTT | 1.04
34 | GCCCAGGCTT | 1.06
35 | GCCCATAGGC | 0.951
36 | GCCCATCTAA | 0.963
37 | GCCCATGGCC | 0.964
38 | GCCCCCGGTT | 1.23
39 | GCCCCGGGT | 0.981
40 | GCCCCTGCAT | 1.02
41 | GCCCCTGGTA | 1.26
42 | GCCCCTTATT | 0.981
43 | GCCCGAGGAT | 1.04
44 | GCCCGAGGGA | 0.991
45 | GCCCGCCCAG | 1.19
46 | GCCCGCTTCT | 0.958
47 | GCCCGGTTTA | 1.02
48 | GCCCGTCGTT | 0.987
49 | GCCCGTTGCT | 1.04
50 | GCCCTCAGTA | 1.05

Row | Sequence | switch fluorescence ratio
51 | GCCCTCGACT | 1.02
52 | GCCCTCTTGA | 1.04
53 | GCCCTGCTTG | 0.975
54 | GCCCTTGGCT | 0.992
55 | GCCCTTTTGG | 0.961
56 | GCCCTTTTT | 1
57 | GCCGAAAGGC | 1.04
58 | GCCGAATTTA | 1.01
59 | GCCGATATGG | 0.957
60 | GCCGATTAGC | 1.04
61 | GCCGCCACCA | 1.05
62 | GCCGCTAAGA | 1.24
63 | GCCGCTCTC | 1.08
64 | GCCGGAGGAA | 1.34
65 | GCCGGGCAA | 1.1
66 | GCCGGGTTT | 0.946
67 | GCCGTACTGC | 1.05
68 | GCCGTACTTT | 1.06
69 | GCCGTAGTTG | 1.01
70 | GCCGTCCTGA | 1
71 | GCCGTGAGGG | 1.01
72 | GCCGTGTAGC | 1.05
73 | GCCTACTACA | 1.05
74 | GCCTAGTGGG | 1.01
75 | GCCTATTTCA | 1.01

Row | Sequence | switch fluorescence ratio
76 | GCCTCATATG | 0.98
77 | GCCTCGATAG | 1.03
78 | GCCTCTGCCA | 1.63
79 | GCCTGCGACG | 1.07
80 | GCCTGCTGTT | 1
81 | GCCTGGAGGT | 1.02
82 | GCCTGGGGGT | 0.997
83 | GCCTGGTTCG | 0.955
84 | GCCTGTCCTT | 0.994
85 | GCCTGTTCCG | 1.22
86 | GCCTTCTGTA | 1.07
87 | GCCTTGTTAG | 1
88 | GCCTTTATTT | 1
89 | GCCTTTGCAA | 1.41
90 | GCCTTTGCGG | 1.02
91 | GCCTTTGGGG | 1.03
92 | GCCTTTTGTA | 1.09
93 | GCCTTTTTC | 1.06
94 | GCGAAACAAT | 1.09
95 | GCGAAACACG | 1.08
96 | GCGAAACCCG | 1.04
97 | GCGAACTATT | 1.04
98 | GCGAAGAGCA | 1.06
99 | GCGAAGAGGT | 0.975
100 | GCGAAGGCTG | 0.976
